“And” between values parts separate entries of the source, which are not always exact repeats. Equal values may be shown once. The whole screen tested about 100,000 compounds, of which about 250 (0.25%) were called active. Inconclusive means that the source gave no clear call. Such entries were picked first, then a sample of the others. Calls follow the shape of the dose curve; as a rule, active = well fitted inhibition curve with a large enough effect; inconclusive = small, poorly fitted or top-dose-only effect; inactive = flat fitted curve, though single readings scatter. Potencies of inconclusive entries are left out as doubtful fits.
Molecular target: Alanine aminotransferase 2 (Homo sapiens) (UniProt Q8TD30)
Test: Primary qHTS assay for inhibitors of Glutamate pyruvate transaminase 2 (GPT2); also: nearly all actives have a fitted effect of over 60% in size
Conditions: Recombinant GPT2, coupled pyruvate oxidase/HRP Amplex Red fluorescence; activity change, negative = inhibition: at 57.7 µM (top of the series) unless noted; series mostly up to 57.7 µM
Method: Assay Provider: Zhenghe John Wang Ph.D.
Case Western Reserve University, Cleveland OH
Glutamate pyruvate transaminase 2 (GPT2) catalyzes the reversible transamination of glutamate and pyruvate to provide a-ketoglutarate and alanine. We have optimized an assay for GPT2 enzymatic activity that couples pyruvate formation to detection of fluorescence using an established pyruvate oxidase/horseradish peroxidase / Amplex Red system.
Screening conditions were 250uM a-KG, 2mM L-alanine, and 10ng/uL GPT2 in […] of solution; 10uL of Amplex reaction mix (outlined below) were added so that final concentrations of Amplex reagents in 50uL were 0.2mM ThPP, 0.2U/mL PO and HRP, and 50uM Amplex.
NOTE: The volume of GPT2 in the system depends on the activity of it. The activity is different every batch. You need to test the activity before the assay. For full plate assay with automation, plate 20uL of GPT2 buffer to pin into, then add 10uL of GPT2 dilution followed immediately by 10uL of substrate dilution. 2 Columns of the plate were devoted to GPT2 buffer ([…] PH7.5, 0.0001% Tween) + 50uM AOA (known GPT2 inhibitor) to serve as a positive control. Complete the assay as normal. Amplex-red buffer: […] PH7.5, 1 mM EDTA, 1 mM MgCl2.
1. Combine a-KG and L-alanine at desired concentrations and incubate for at least 10 minutes at 37C. Stocks of L-alanine and a-KG are diluted in distilled water. However, the stocks were diluted in GPT2 buffer for the assay.
2. Prepare GPT2 dilution at the desired concentration in GPT2 buffer.
3. Plate 40uL of GPT2 dilution with 40uL of substrate dilution and let incubate for 30 minutes at room temperature.
4. Add 20uL of Amplex reaction mix prepared as follows: 1.5uL 200U/mL Horseradish Peroxidase, 200mM Thiamine Pyrophosphate, 200U/mL Pyruvate Oxidase; 7.5uL 10mM Amplex Red; 288uL Amplex Buffer.
5. Incubate for 30 minutes at room temperature in the dark, then image using AM_Amplex_Fluorescence on plate reader nearest the window.
% is scaled to controls: 0 for no effect and ±100 for the full control effect; potency is read from the fitted curve at half-maximal effect; tags tell the direction and shape of the fitted curve.

UniProt Q8TD30, sequence (Q8TD30 whole entry, looked up): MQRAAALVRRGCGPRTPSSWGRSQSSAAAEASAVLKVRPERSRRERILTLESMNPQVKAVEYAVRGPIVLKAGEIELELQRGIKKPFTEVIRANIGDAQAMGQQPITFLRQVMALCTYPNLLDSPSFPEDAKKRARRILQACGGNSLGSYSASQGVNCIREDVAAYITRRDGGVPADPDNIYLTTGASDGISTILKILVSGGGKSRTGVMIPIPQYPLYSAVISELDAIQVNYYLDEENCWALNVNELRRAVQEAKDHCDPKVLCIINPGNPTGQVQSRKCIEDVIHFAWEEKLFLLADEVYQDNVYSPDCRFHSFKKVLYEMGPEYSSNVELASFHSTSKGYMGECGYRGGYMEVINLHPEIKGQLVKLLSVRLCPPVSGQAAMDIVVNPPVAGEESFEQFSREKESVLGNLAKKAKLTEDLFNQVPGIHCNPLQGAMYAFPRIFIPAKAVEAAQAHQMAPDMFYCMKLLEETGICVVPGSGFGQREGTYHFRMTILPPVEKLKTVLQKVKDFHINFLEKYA

SMILES | Potency | outcome | activity change, negative = inhibition
O=C(CCc1nnc(CCc2c[nH]c3ccccc23)o1)N1CCCC1c1nccs1 (centres undefined) | inconclusive [inhibitor, single point] | – | –
NC(=O)c1nnn([C@H]2CCN3C(=O)[C@@H](Cc4ccccc4)NC(=O)[C@@H]3C2)c1C(N)=O | inconclusive [inhibitor, single point] | – | –
CCn1ncc(NC(=O)Cn2ncc3cc(-c4ccc(C)cc4F)ccc32)n1 | inconclusive [inhibitor, partial curve] | – | –
Cc1noc(-c2ccco2)c1C(=O)NCc1cccc2ccccc12 | inconclusive [inhibitor, single point] | – | –
Cc1ccc(S(=O)(=O)N2CCn3c(n[nH]c3=O)C2)c(C)c1 | – | inactive | –
COCCc1noc(CC2CCOC3(CCN(C(=O)CCC4CCCC4)CC3)C2)n1 (centres undefined) | inconclusive [inhibitor, single point] | – | –
COc1cccc(-c2cccc(C(=O)N3CCCC3C(=O)NCC3CC3)c2)c1 (centres undefined) | inconclusive [inhibitor, single point] | – | –
O=C(O)C1=NOC2CN(Cc3coc(-c4ccccc4)n3)CC12 (centres undefined) | inconclusive [inhibitor, full curve, poor fit] | – | –
COc1cccc(-c2cccc(CN3CCCC3C(=O)NCc3ccc(F)cc3F)c2)c1 (centres undefined) | – | – | inactive: 1.16%
CCc1nc2c(c(-c3ccc(OC)cc3)n1)CCN(Cc1ccc(OC)cc1)CC2 | – | inactive | –
CCc1ccc(CNC(=O)C2Cn3cccc3C(=O)N2)cc1 (centres undefined) | inconclusive [inhibitor, single point] | – | –
O=C(NC1CCCC1)C1CCN(C(=O)c2ccc(-c3cncnc3)cc2)CC1 | – | – | inactive: 0.994%
CN1[C@@H](CCC(=O)N2CC[C@@H](O)C2)CNC(=O)[C@@H]2[C@H]1CCN2Cc1csnn1 | inconclusive [inhibitor, single point] | – | –
CC[C@@H]1[C@@H](NC(=O)c2cc(C)nc3c2c(=O)[nH]c(=O)n3C)[C@@H]2CCO[C@H]12 | inconclusive [inhibitor, single point] | – | –
COCc1nc(C2CC(NC(=O)c3c(F)ccc(C)c3Cl)C2)cc(=O)[nH]1 (centres undefined) | – | – | inactive: -23%
CN1C[C@@H](NS(=O)(=O)Cc2ccccc2)C[C@H]1c1nc(Cc2ccccc2)no1 | inconclusive [inhibitor, single point] | – | –
COc1cccc(CNC(=O)N(C)C2CCc3nn(CC4CC4)c(=O)n3CC2)c1 (centres undefined) | inconclusive [inhibitor, partial curve, poor fit] | – | –
Cc1cc2cc(-c3c(C)noc3C)nc(N(C)C)c2o1 | inconclusive [inhibitor, single point] | – | –
O=C1Nc2ccccc2CC12CCN2Cc1ccc(C(F)(F)F)cc1 (centres undefined) | inconclusive [inhibitor, single point] | – | –
CCCCCCCCCCCCCCCCC(C(=O)O)C(O)(CC(=O)O)C(=O)O (centres undefined) | inconclusive [inhibitor, single point] | – | –
CCS(=O)(=O)Nc1ccc(C(=O)N2CCN(C(C)=O)CC(O)C2)cc1 (centres undefined) | inconclusive [inhibitor, single point] | – | –
Cc1ccc(C(=O)N2CCC3(CC2)NC(=O)N(c2ccccc2Cl)N3)c(C)c1 | inconclusive [inhibitor, single point] | – | –

SMILES | Potency | outcome | activity change, negative = inhibition
CCc1nc2c(=O)n(CC(=O)N3CCN(c4cccc(C)c4C)CC3)nc(C)c2s1 | inconclusive [inhibitor, full curve, poor fit] | – | –
CCC(CC)NC(=O)CC1CCCN(c2cnn(CC3CC3)c(=O)c2)C1 (centres undefined) | inconclusive [inhibitor, single point] | – | –
CCOC(=O)C1=C(C)NC(C)=C(C(=O)OC)C1c1cccc([N+](=O)[O-])c1 (centres undefined) | inconclusive [inhibitor, partial curve, poor fit] | – | –
O=C(NCc1ccc(Cl)cc1)C1CCN(c2ccnc3ccnn23)CC1 | – | – | inactive: -17.3%
O=C1CCN(S(=O)(=O)c2ccccc2)CCCN(C(=O)COc2ccccc2)CCN1 | – | inactive | –
CN1Cc2c(cc(N3CCOCC3)nc2-c2cccc(C(F)(F)F)c2)C1=O | inconclusive [inhibitor, full curve, poor fit] | – | –
COCCNC(=O)[C@@H]1C[C@H](Oc2ccccc2)CN1C(=O)c1ocnc1C | inconclusive [inhibitor, partial curve, poor fit] | – | –
CCOCc1nc(C2CCCN(C(=O)NCCc3ccccc3)C2)no1 (centres undefined) | – | inactive | –
CC(C)C[C@H](NC(=O)CNC(=O)c1cc(Cl)ccc1Cl)B1OC(=O)CC(CC(=O)O)(C(=O)O)O1 (some centres undefined) | inconclusive [inhibitor, single point] | – | –
COc1ccccc1-c1nc(C(=O)NCc2cccs2)n2ccncc12 | inconclusive [inhibitor, full curve, poor fit] | – | –
O=C(NCCc1ccc(Cl)cc1)C1CCCN1C(=O)c1cccc(-c2ccccn2)c1 (centres undefined) | inactive | – | –
O=C(NCC1CCCCN1)c1cc(OCC(F)(F)F)ccc1OCC(F)(F)F (centres undefined) | inconclusive [inhibitor, single point] | – | –
COc1cc(N2CCC(N3CCN(C)CC3)CC2)ccc1Nc1ncc(Cl)c(Nc2ccccc2S(=O)(=O)C(C)C)n1 | active: 3.06 µM and active: 2.24 µM | – | –
Cn1ccc(C(=O)NCc2nnc3n2C(C(=O)NCC2CC2)CC3)n1 (centres undefined) | inconclusive [inhibitor, single point] | – | –
COc1ncccc1-c1cnc2[nH]cc(CC(=O)NC(C)C)c2c1 | – | – | inactive: 3.57% [at 88.5 µM]
COc1cc(/C=C/c2cc(O)cc(O[C@@H]3O[C@H](CO)[C@@H](O)[C@H](O)[C@H]3O)c2)ccc1O | inconclusive [inhibitor, single point] | – | –
Cc1cnccc1N1CCCN(C(=O)Cn2ccnc2-c2ccccc2)CC1 | inconclusive [inhibitor, single point] | – | –
CC(NC(=O)COc1ccc(F)cc1)C(=O)N1CCN(c2ccccn2)CC1 (centres undefined) | inconclusive [inhibitor, single point] | – | –
CN1CCCCC1COc1ccc2c(n1)CN(Cc1ccccc1F)C(=O)CO2 (centres undefined) | – | – | inactive: -14.2% [at 88.5 µM]
O=C(NCc1cccc(C(F)(F)F)c1)c1cn2cc(-c3ccccc3)sc2n1 | inconclusive [inhibitor, single point] | – | –
CCN(CC)C(=O)CCc1c(C)nn(-c2cccc(C)c2)c1Oc1ccc(F)cc1F | – | – | inactive: 0.497%
CN1CC(=O)N(c2ccccc2)Cc2c1ncnc2N1CCC(O)CC1 | inconclusive [inhibitor, single point] | – | –

SMILES | Potency | outcome | activity change, negative = inhibition
COc1ccccc1-c1nc2cnccn2c1NCCC(=O)Nc1ccc2c(c1)OCO2 | inconclusive [inhibitor, partial curve, poor fit] | – | –
NC(=O)[C@@H]1CCCN1C(=O)c1ccc2oc(-c3cccc(F)c3)nc2c1 | – | inactive [at 11.5 µM] | –
CO[C@H]1[C@H](NC(=O)CCc2cccnc2)c2ccccc2C12CCNCC2 | inconclusive [inhibitor, single point] | – | –
O=C(NCc1nnc2n1C(C(=O)N1CCOCC1)CC2)Nc1cccnc1 (centres undefined) | inconclusive [inhibitor, full curve, poor fit] | – | –
COc1ccccc1NC(=O)Cn1c(-c2ccc(F)cc2)nc(C)cc1=O | – | – | inactive: -20.8%
Cc1ccc(S(=O)(=O)Nc2ccc3c(c2)CN(CCc2ccc(F)cc2)C(=O)C(C)O3)cc1F (centres undefined) | – | inactive | –
Cc1nn(C)c(C)c1CCN(C)C(=O)C1CCN(C(=O)N2CC3CC(C2)[C@H]2CCCC(=O)N2C3)CC1 (some centres undefined) | inconclusive [inhibitor, single point] | – | –
COc1ccc(C(=O)N2CCC(N3C(=O)C4(CCCC4)C3c3ccccc3)CC2)cc1 (centres undefined) | inconclusive [inhibitor, partial curve, poor fit] | – | –
O=C1CN(S(=O)(=O)c2ccccc2)CC2(CCCCC2)N1CC1CC1 | – | – | inactive: -12.2%
Cc1ccc(Nc2ccnc(N3CCCN(C(=O)NC4CCCC4)C3)n2)cc1 | – | inactive | –
C[C@@H]1CCN(C(=O)CC#N)C[C@H]1N(C)c1ncnc2[nH]ccc12 | inconclusive [inhibitor, single point] | – | –
CCCCC(F)(F)[C@@]1(O)CC[C@H]2[C@H](CC(=O)[C@@H]2CCCCCCC(=O)O)O1 | inconclusive [inhibitor, partial curve, poor fit] | – | –
COc1ccccc1CCC(=O)Nc1cccc(-c2nnc3n2CCCC3)c1 | inconclusive [inhibitor, single point] | – | –
CC(C)C(=O)N1CCCN(c2ccnc3ccnn23)CC1 | inconclusive [inhibitor, full curve, poor fit] | – | –
COCCOc1ccnc(-c2noc([C@@H]3CCCN3Cc3cn(C)c4ccccc34)n2)c1 | inconclusive [inhibitor, single point] | – | –
Cc1ccccc1-c1noc(CCCC(=O)N2CCn3nc(CO)cc3C2)n1 | inconclusive [inhibitor, single point] | – | –
O=C(Nc1cccc(-c2ccco2)c1)C1CCN(C(=O)NCc2ccco2)CC1 | inconclusive [inhibitor, full curve, poor fit] | – | –
COCC1CN(Cc2ccccc2F)CC12CCNCC2 (centres undefined) | – | – | inactive: -8.98%
COc1ccc(-c2nc(-c3ccccc3)nc3c2CN(C(=O)c2ccc(C(F)(F)F)cc2)CC3)cc1 | – | – | inactive: -2.59%
COc1ccccc1C(=O)N1CCC(Cc2nc(-c3ccccc3)no2)CC1 | – | – | inactive: 1.16%

From PubChem BioAssay AID1671188 (National Center for Advancing Translational Sciences (NCATS), 2021)
